Measured values as given in PubChem BioAssay AID445 (National Center for Advancing Translational Sciences (NCATS), 2006).
About 40 (0.04%) of roughly 110,000 compounds were called active. The inconclusive results got no clear call from the source; some entries with a clear call stand among them for comparison. Calls follow the shape of the dose curve; as a rule, active = well fitted curve in the direction sought with a large enough effect in the signal ratio (not every such curve was filed as active); inconclusive = small, poorly fitted or top-dose-only effect, or a change in a side signal; inactive = flat fitted curve, though single readings scatter; the % refers to the signal ratio. Where the call is inconclusive, the potency comes from a doubtful curve fit.
Potency is read from the fitted curve at half-maximal effect.

Experiment: IkB Signaling;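 as to IkBa stabilization activation: 0% = basal untreated cells and 100% = reference inhibitor full response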
Details: ABC-DLBCL IkBa-CBG/CBR dual luciferase ratio (green luciferase fused to IkBa over red control in OCI-Ly3 lymphoma cells), 4 h; IkBa stabilization activation: at 57.1 µM (top of the series), scaled: untreated 0%, proteasome inhibitor 100% unless noted
How it was run: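 Luminescence ratio of IκBα-fused green versus native red beetle luciferase in OCI-Ly3 cells, 4 h post-doxycycline with compound; red signal alone, scaled from basal (0%) to zero light (-100%), flagged nonspecific or cytotoxic effects.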
In the case of CCCc1nc2oc3c(NCc4ccccn4)ncnc3c2c2c1COC(C)(C)C2, the “IkBa stabilization activation” value is reported as inactive: -1.84%. With COc1ccc(-c2cnc(C)o2)cc1S(=O)(=O)Nc1cccc(C(F)(F)F)c1 the IkBa stabilization activation was inconclusive: 0.574% [signal inhibitor]. In the case of O=C(Nc1cccc(C(F)(F)F)c1)C1CCN(S(=O)(=O)c2cccc3nsnc23)CC1, the IkBa stabilization activation is reported as inconclusive: -0.295% [signal inhibitor]. In the case of COc1ccc(C(=O)CC2(O)C(=O)N(CCc3ccccc3)c3ccc(Br)cc32)cc1OC (configuration not stated), the IkBa stabilization activation is reported as inconclusive: 8.74% [signal inhibitor]. With O=c1cc(CSc2nnnn2-c2ccccc2)nc2scc(-c3ccccc3)n12 the IkBa stabilization activation was inconclusive: 8.71% [signal inhibitor]. For COc1cccc(-n2c(=O)c3c4c(sc3n(Cc3ccccc3C#N)c2=O)CCCC4)c1, the “IkBa stabilization activation” value was inactive: 1.05%. For CCOC(=O)/C(C#N)=C1/C=Nc2ccccc2N1, the Potency was inconclusive: 15.8 µM [signal inhibitor, partial curve]. With c1c2c(cc3sc(N4CCOCC4)nc13)OCCO2 the Potency was inconclusive: 3.98 µM [rising, partial curve]. With CC(C)c1cc(C(F)(F)F)nc(NNc2nc(C(C)C)cc(C(F)(F)F)n2)n1 the IkBa stabilization activation was inactive: 2.71% [at 11.4 µM, scaled: untreated 0%, proteasome inhibitor 100%]. In the case of CN(C(=O)CSc1nc2ccc(NC(=O)c3ccccc3)cc2s1)c1ccccc1, the IkBa stabilization activation is reported as inconclusive: 4.76% [signal inhibitor]. For CCOC(=O)c1[nH]c2ccc(F)cc2c1NC(=O)C(C)N1CCc2cc(OC)c(OC)cc2C1 (configuration not stated), the IkBa stabilization activation was inconclusive: 6.91% [signal inhibitor]. For O=C(CSc1oc(-c2cccs2)nc1S(=O)(=O)c1ccccc1)Nc1ccc(F)cc1, the “IkBa stabilization activation” value was inactive: 14.9%. In the case of Cc1ccc(-n2nc(C)c3c(C(=O)Nc4ccc(C)cc4Cl)cc(C)nc32)cc1, the IkBa stabilization activation is reported as inconclusive: -2.09% [signal inhibitor]. With COc1cc(CN(C(=O)c2ccc(C)cc2)c2ccccn2)cc(OC)c1OC the IkBa stabilization activation was inconclusive: 1.02% [signal inhibitor]. With CCOC(=O)CSc1nc(-c2ccc(OC)cc2)cc(C(F)(F)F)c1C#N the “IkBa stabilization activation” value was inactive: 0.283%. With CC(C)(C)C1CCc2c(sc(NC(=O)Cn3nnc(-c4cccc(C(F)(F)F)c4)n3)c2C#N)C1 (configuration not stated) the IkBa stabilization activation was inconclusive: -2.83% [signal inhibitor]. In the case of Cn1c(CNC(=O)CSc2n[nH]c(-c3ccccc3)n2)nc2ccccc21, the IkBa stabilization activation is reported as inconclusive: 0.824% [signal inhibitor]. With Fc1ccc(Nc2nc3nonc3nc2Nc2cccc(C(F)(F)F)c2)cc1 the IkBa stabilization activation was inconclusive: -3.29% [signal inhibitor]. With O=C(Cn1c(=O)n(-c2ccc(Cl)cc2)c(=O)c2c3c(sc21)CCC3)c1ccc(F)cc1 the IkBa stabilization activation was inconclusive: 9.18% [signal inhibitor]. In the case of NNC(=O)[C@@H](O)[C@H](O)C(=O)NN, the IkBa stabilization activation is reported as inactive: 2.53% [at 11.4 µM, scaled: untreated 0%, proteasome inhibitor 100%]. With COc1ccccc1Cn1c(CNS(=O)(=O)c2ccc3c(c2)CCCC3)nc2cccnc21 the IkBa stabilization activation was inconclusive: 1.28% [signal inhibitor]. In the case of COc1ccccc1N1CCN(C(=O)CSc2nc3ccccc3nc2Cc2ccc(F)cc2)CC1, the IkBa stabilization activation is reported as inconclusive: -0.757% [signal inhibitor]. For CCC(=O)N1c2ccccc2CC1C(=O)NCCN1CCN(c2cccc(C)c2C)CC1 (configuration not stated), the IkBa stabilization activation was inconclusive: -1.73% [signal inhibitor]. With O=C(Nc1ccc(N2CCCCC2)cc1)c1cccnc1 the IkBa stabilization activation was inconclusive: 5% [signal inhibitor]. With Cc1nc2sccn2c(=O)c1S(=O)(=O)Nc1ccc(N2CCN(S(C)(=O)=O)CC2)cc1 the IkBa stabilization activation was inconclusive: 0.974% [signal inhibitor]. With O=C(CSc1nc(-c2ccccc2)[nH]c1-c1ccccc1)Nc1ccc2c(c1)OCO2 the IkBa stabilization activation was inconclusive: 3.61% [signal inhibitor]. In the case of Cc1ccccc1NCc1cccn1-c1nnc(N2CCOCC2)s1, the “IkBa stabilization activation” value is reported as inactive: -3.04%. With O=[N+]([O-])c1cc(-c2nc(-c3ccccc3)no2)ccc1N1CCCC1 the IkBa stabilization activation was inconclusive: -1.2% [signal inhibitor]. In the case of CCC(Sc1nc2c(sc3ccccc32)c(=O)n1CCCC(=O)NC1CCCC1)C(=O)Nc1cccc(OC)c1 (configuration not stated), the “IkBa stabilization activation” value is reported as inactive: 2%. For Cc1ccc(C)c(NC(=O)CCc2nc(-c3ccc(C(C)(C)C)cc3)no2)c1, the IkBa stabilization activation was inconclusive: 2.14% [signal inhibitor]. With CCC(=O)N1CCc2cc(CNC(=O)Nc3ccccc3Cl)ccc21 the “IkBa stabilization activation” value was inactive: 0.103%. For CCOc1cc(C#N)c(NC(=O)c2cccc(S(=O)(=O)N3CCOCC3)c2)cc1OCC, the IkBa stabilization activation was inconclusive: -2.42% [signal inhibitor]. With COc1cccc(NC(=O)CN(C)S(=O)(=O)c2cccs2)c1 the IkBa stabilization activation was inconclusive: 2.4% [signal inhibitor]. For CC(C)(C)CC(C)(C)c1cc(O)c(O)c(CN2CCCCC2)c1, the IkBa stabilization activation was inactive: -0.0944% [at 11.4 µM, scaled: untreated 0%, proteasome inhibitor 100%]. With CC1CCN(C(=O)CSc2nc(-c3ccc(C(C)C)cc3)no2)CC1 the IkBa stabilization activation was inconclusive: 0.429% [signal inhibitor]. In the case of CCC1CCCCN1CCCNC(=O)c1ccc2c(c1)N(Cc1ccccc1F)C(=O)c1ccccc1S2(=O)=O (configuration not stated), the “IkBa stabilization activation” value is reported as inactive: -0.234%. In the case of O=C(Cc1ccc(F)cc1)OCC(=O)c1cc2ccccc2o1, the “IkBa stabilization activation” value is reported as inactive: 2.46%. In the case of COc1ccc2nc3oc(C(=O)N4CCCCC4)cc3cc2c1, the IkBa stabilization activation is reported as inconclusive: 2.87% [signal inhibitor]. With Cc1ccc(C(=O)Nc2ccc3c(c2)N(C)C(=O)c2ccccc2S3)cc1 the IkBa stabilization activation was inconclusive: 1.55% [signal inhibitor]. In the case of COc1ccc(CCNC(=O)c2cc(C)nc3c2c(C)nn3-c2ccccc2)cc1OC, the “IkBa stabilization activation” value is reported as inactive: 0.833%. With CCc1ccc(NC(=O)c2cc(S(=O)(=O)N3CCCC3)ccc2F)cc1 the IkBa stabilization activation was inconclusive: 8.55% [signal inhibitor]. For Cc1cccc(-n2ncc(C(=O)N3CCc4ccccc4C3)c2C2CCN(C(=O)OC(C)(C)C)CC2)c1, the IkBa stabilization activation was inconclusive: 5.16% [signal inhibitor].
